# The campaign covered roughly 360,000 compounds. About 7,500 (2.1%) were called active. The shares of active, inactive and inconclusive entries below differ from those in the screen. The call rests on the fitted dose curve; in most records, active means well fitted cell-killing curve with a large enough effect; inconclusive means small, poorly fitted or top-dose-only effect, or effect the other way, or another doubt; inactive means no such curve, though single readings can be large or run the other way. No potency is given beside an inconclusive call; the fits are too rough.
# Assay: qHTS for induction of synthetic lethality in tumor cells producing 2HG: qHTS for the HT-1080-IDH1KD cell line;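 on activity, negative = toxicity: 0% = DMSO wells and -100% = cell-free medium wells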
# Settings: HT-1080 IDH1 knockdown viability, ATP luminescence, 48 h; activity, negative = toxicity: at 46.1 µM (top of the series) unless noted
# Summary of the method: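 Cytotoxicity counter-line: IDH1KD HT-1080, 48 h, CellTiter-Glo. Curves classed by r2, magnitude and activity.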
# Potency means the concentration at half of the fitted maximal effect; tags describe the fitted curve by direction and shape.
SMILES,Potency,"activity, negative = toxicity"
COc1cc(/C=C(/C(=O)c2cccs2)c2nc3ccccc3[nH]2)ccc1O,active: 5.01 µM,
O=C(Oc1c(-c2ccccc2)c(=O)n2c3c(cccc13)CC2)c1cccc([N+](=O)[O-])c1,"inconclusive [cytotoxic, partial curve]",
Cc1ccc(-c2cc(C(=O)N/N=C/c3c(C)nn(C)c3C)c3ccccc3n2)cc1C,"inconclusive [cytotoxic, single point]",
C#CCOCCOCCOCCNc1nc(N2CCN(C(=O)CCCCCCCCCCNC(=O)[C@H](CCCCN)n3cc(CCO)nn3)CC2)nc(N2CCN(C(=O)CCCCCCCCCCNC(=O)[C@H](CCCCN)n3cc(C[C@@H](C)CC)nn3)CC2)n1,"inconclusive [cytotoxic, single point]",
COc1cccc(COC(=O)c2cc(=O)[nH]c3ccc(S(=O)(=O)N4CCOCC4)cc23)c1OC,,inactive: -7.33%
O=C(Nc1ccc(Cl)cc1)N1CCCN(Cc2ccccc2F)C1,active: 12.6 µM,
CCOc1ccc(N/C(C)=C/C(=O)c2ccc3c(c2)OCCO3)cc1,,inactive: -13.9%
Cc1ccc(C)c(N(C(=O)CNC(=O)c2ccco2)C(C(=O)NC2CCCC2)c2ccncc2)c1 (stereo not given),,inactive: 6.41%
Cc1oc(-c2cccc(Cl)c2)nc1CN(C)C1CCOC1 (stereo not given),,inactive: 14.7%
O=C(CSc1ccc(-c2ccccn2)nn1)Nc1ccccc1,"inconclusive [cytotoxic, single point]",
CCN(CC)S(=O)(=O)c1cc(-c2nnc(-c3ccc(Br)cc3)o2)ccc1Br,,inactive: 0.934% [at 9.24 µM]
CCCc1cc(=O)[nH]c(SCC(=O)Nc2cc(S(=O)(=O)N3CCCCC3)ccc2C)n1,active: 14.6 µM,
C=CCN1C=CC(=O)[C@@H](OC(=O)Nc2ccc(Br)cc2)[C@H]1c1ccccc1Br,"inconclusive [cytotoxic, single point]",
Nc1ccc2c(c1)nc(Cc1ccccc1)n2CCO,,inactive: 13.2%
O=C(CNC(=O)c1ccccc1Cl)N/N=C/c1ccc([N+](=O)[O-])s1,active: 23.1 µM,
CC(=O)Nc1ccc(-c2csc(NC(=O)CCNC(=O)c3ccco3)n2)cc1,,inactive: -1.18%
O=C(N/N=C/c1c(O)n(Cc2ccccc2)c(=O)c2ccccc12)c1cccnc1,active: 14.6 µM,
COc1ccc(OC)c(NS(=O)(=O)c2ccc(NC(=O)C3COc4ccccc4O3)cc2)c1 (stereo not given),"inconclusive [cytotoxic, single point]",
CC(C)(C)NS(=O)(=O)c1ccc(NC(=O)C(Sc2ccccc2)c2ccccc2)cc1 (stereo not given),"inconclusive [cytotoxic, single point]",
COc1ccc(C(=O)N2CCN(c3ccc(NC(=O)Cc4ccccc4)cc3)CC2)cc1,,inactive: -15.5%
O=Nc1c(O)[nH]c2ccc(Cl)c(Cl)c12,"inconclusive [cytotoxic, partial curve, poor fit]",
CC(C)CC1OC(C)Cc2[nH][nH]c(=O)c21 (stereo not given),,inactive: 12.3%
Cc1ccc(SCc2nc3ccccc3n2CC(=O)Nc2c(C)cccc2C)cc1,"inconclusive [cytotoxic, single point]",
Cc1cc2cc3c(cc2nc1SCC(=O)N1c2ccccc2CC1C)OCO3 (stereo not given),,inactive: 2.14% [at 9.24 µM]

SMILES,Potency,"activity, negative = toxicity"
COc1cc(C(=O)Nc2ccncc2)c([N+](=O)[O-])cc1OC,,inactive: -7.59%
COc1cc(/C=N/NC(=O)CSc2cc(C)c(Br)cc2C)ccc1O,"inconclusive [cytotoxic, single point]",
Cc1ccc2cccc(NC(=S)NC(=O)c3ccn(C)n3)c2n1,active: 7.94 µM,
COc1cc(NC(=O)CSc2c3c(nc4ccccc24)CCC3)cc(OC)c1OC,,inactive: -9.22%
CCC1=C/C(=C/c2sc3ccccc3[n+]2CC)CC(C)(C)C1,"inconclusive [cytotoxic, single point]",
COc1ccc(CCn2c(=S)[nH]c(=O)c3cccnc32)cc1OC,"inconclusive [cytotoxic, partial curve]",
O=C1CC(Sc2nnc(-c3ccccc3O)o2)C(=O)N1c1ccccc1 (stereo not given),active: 4.47 µM,
CC1/C(=N/O)CC(c2ccccc2)NC1c1ccccc1 (stereo not given),,inactive: -2.62%
COc1ccccc1C(CCNCc1ccc(N(C)C)cc1)c1ccc(OC(C)C)cc1 (stereo not given),"inconclusive [cytotoxic, single point]",
O=C(NCCc1ccc(F)cc1)C(=O)NCC1CCCN1S(=O)(=O)c1ccccc1 (stereo not given),"inconclusive [cytotoxic, single point]",
CCOc1ccc2[nH]c(=O)c(CN(CC3COCCO3)C(=O)c3ccco3)cc2c1 (stereo not given),,inactive: -0.529%
O=C(NCCCOc1cccc(CN2CCCCC2)c1)c1ccc(Cl)c(Cl)c1,active: 23.1 µM,
CC(=O)O[C@H]1C(=O)[C@@]2(C)[C@H]([C@H](OC(=O)c3ccccc3)[C@]3(O)C[C@H](OC(=O)[C@H](O)[C@@H](NC(=O)c4ccccc4)c4ccccc4)C(C)=C1C3(C)C)[C@]1(OC(C)=O)CO[C@@H]1C[C@@H]2O,active: 0.0082 µM,
CC1=NN(c2ccccc2)C(=O)/C1=C\C=C\c1ccccc1,active: 3.66 µM,
N=c1n(Cc2ccc(Cl)cc2)c2ccccc2n1CC(O)c1ccco1 (stereo not given),"inconclusive [cytotoxic, single point]",
O=C(O)c1ccccc1N=Nc1ccc(O)cc1,"inconclusive [cytotoxic, partial curve]",
COc1cccc(Nc2nc(N)nc(CCl)n2)c1,active: 10.3 µM,
CC(=O)Nc1ccc(Nc2cc(C(C)C)nc3c(-c4ccccc4)c(C)nn23)cc1,"inconclusive [cytotoxic, single point]",
CCOc1ccc(CN(C)C(=O)CNC(=O)Cc2cccc3ccccc23)cc1,,inactive: -1.27%
[O-]/[N+](=C/c1ccc(F)cc1)c1ccccc1,"inconclusive [rising, single point]",
O=S(=O)(c1ccc(NC(=S)N/N=C/c2c3ccccc3cc3ccccc23)cc1)N1CCOCC1,"inconclusive [cytotoxic, partial curve]",
CC(NC(=O)Nc1ccc(Cl)cc1)C(c1cccs1)N1CCOCC1 (stereo not given),"inconclusive [cytotoxic, single point]",
COc1ccc(OC)c(NC(=O)CCOc2cccc(C)c2)c1,"inconclusive [cytotoxic, partial curve]",
CCCCNc1ncnc2c1cnn2Cc1ccc(Cl)cc1,"inconclusive [cytotoxic, single point]",

SMILES,Potency,"activity, negative = toxicity"
CN(c1cc2c(c3c1ccn3C)C1CCC2O1)C1CCCCC1 (stereo not given),"inconclusive [cytotoxic, single point]",
COc1ccc(C(=O)N/N=C/c2ccccn2)cc1,"inconclusive [cytotoxic, single point]",
CC(C)c1[nH]nc2c1C(C1C=CCCC1)C(C#N)=C(N)O2 (stereo not given),"inconclusive [cytotoxic, single point]",
CS(=O)(=O)N1CCN(c2ccccc2NC(=O)c2cc(Br)ccc2Cl)CC1,,inactive: -12.6%
COc1ccc(-c2csc(NC(=O)Cc3cc(OC)c(OC)c(OC)c3)n2)cc1OC,"inconclusive [cytotoxic, single point]",
COc1ccc(C2=NOC3(CC(=O)N(c4ccc(F)cc4)C3=O)C2)cc1 (stereo not given),,inactive: 12.1%
CCCc1ccc2oc(C(=O)N(Cc3ccncc3)CC3CCCO3)c(C)c2c1 (stereo not given),"inconclusive [cytotoxic, single point]",
O=C(Nc1ccncc1)c1ccc(Cl)c(S(=O)(=O)N2CCc3ccccc32)c1,"inconclusive [cytotoxic, single point]",
Cc1ccc(S(=O)(=O)Oc2ccc(C)cc2/C=N/N=C2\NC(=O)C(C)S2)cc1 (stereo not given),"inconclusive [cytotoxic, single point]",
COc1nc(-c2ccccc2)cc(-c2ccc(OC)c(OC)c2)n1,"inconclusive [cytotoxic, single point]",
CC(=O)Nc1ccc(S(=O)(=O)N2c3ccc(F)cc3CCC2C)cc1 (stereo not given),active: 20.6 µM,
COC(=O)c1sccc1NC(=S)N1CC(C)CC(C)C1 (stereo not given),,inactive: -8.53%
COc1ccc2c(c1)c1nc3ccccc3nc1n2Cc1ccc(OC(C)C)c(OC)c1,"inconclusive [cytotoxic, partial curve]",
O=C(CCN1C(=O)COc2ccccc21)NCCCN1CCN(c2ccccc2F)CC1,,inactive: -13.2%
CCOc1ccc(N2C(=O)/C(=C/c3ccco3)N(C)C2=S)cc1,,inactive: -17.2%
Cc1ccc(-n2c(C)csc2=N)cc1,"inconclusive [cytotoxic, single point]",
COC(=O)[C@@]12C[C@@H](CC(=O)NCc3ccccc3)C(=O)N(CCc3ccc(OC)c(OC)c3)C1=CCC(C)(C)C2,,inactive: -3.86%
COc1cccc(NC(=O)Cn2c(=O)n(-c3ccccc3)c(=O)c3oc4ccccc4c32)c1,"inconclusive [cytotoxic, partial curve]",
COc1ccc(NC(=O)CN2CCN(C3c4ccccc4-c4ccccc43)CC2)cc1,"inconclusive [cytotoxic, single point]",
Cc1ccc(NC(=O)CCc2c[nH]c3ccccc23)nc1,"inconclusive [cytotoxic, full curve]",
Cc1nc(NC(=O)COC(=O)c2cc3c(s2)CCC(C)C3)c(Cl)cc1Cl (stereo not given),"inconclusive [rising, partial curve]",
COc1ccc2nc3c(cc2c1)c(NC(=O)C1CCCO1)nn3CC(C)C (stereo not given),,inactive: -0.0254%
